Measurements: publication PMC4336329 (PLoS ONE, 2015)
Out of some 310,000 compounds screened, about 14,000 (4.5%) showed an effect of 50% or more. The effect is printed as a negative number. The list shows a part of the results.

molecular target: human ether-à-go-go-related gene (hERG) potassium channel (human, UniProt Q12809); assay: primary screen, population patch clamp on CHO cells stably expressing hERG
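Further: peak tail current of the secondary pulse compared with the same well before compound.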

human ether-à-go-go-related gene (hERG) potassium channel, sequence (Q12809 whole entry, looked up): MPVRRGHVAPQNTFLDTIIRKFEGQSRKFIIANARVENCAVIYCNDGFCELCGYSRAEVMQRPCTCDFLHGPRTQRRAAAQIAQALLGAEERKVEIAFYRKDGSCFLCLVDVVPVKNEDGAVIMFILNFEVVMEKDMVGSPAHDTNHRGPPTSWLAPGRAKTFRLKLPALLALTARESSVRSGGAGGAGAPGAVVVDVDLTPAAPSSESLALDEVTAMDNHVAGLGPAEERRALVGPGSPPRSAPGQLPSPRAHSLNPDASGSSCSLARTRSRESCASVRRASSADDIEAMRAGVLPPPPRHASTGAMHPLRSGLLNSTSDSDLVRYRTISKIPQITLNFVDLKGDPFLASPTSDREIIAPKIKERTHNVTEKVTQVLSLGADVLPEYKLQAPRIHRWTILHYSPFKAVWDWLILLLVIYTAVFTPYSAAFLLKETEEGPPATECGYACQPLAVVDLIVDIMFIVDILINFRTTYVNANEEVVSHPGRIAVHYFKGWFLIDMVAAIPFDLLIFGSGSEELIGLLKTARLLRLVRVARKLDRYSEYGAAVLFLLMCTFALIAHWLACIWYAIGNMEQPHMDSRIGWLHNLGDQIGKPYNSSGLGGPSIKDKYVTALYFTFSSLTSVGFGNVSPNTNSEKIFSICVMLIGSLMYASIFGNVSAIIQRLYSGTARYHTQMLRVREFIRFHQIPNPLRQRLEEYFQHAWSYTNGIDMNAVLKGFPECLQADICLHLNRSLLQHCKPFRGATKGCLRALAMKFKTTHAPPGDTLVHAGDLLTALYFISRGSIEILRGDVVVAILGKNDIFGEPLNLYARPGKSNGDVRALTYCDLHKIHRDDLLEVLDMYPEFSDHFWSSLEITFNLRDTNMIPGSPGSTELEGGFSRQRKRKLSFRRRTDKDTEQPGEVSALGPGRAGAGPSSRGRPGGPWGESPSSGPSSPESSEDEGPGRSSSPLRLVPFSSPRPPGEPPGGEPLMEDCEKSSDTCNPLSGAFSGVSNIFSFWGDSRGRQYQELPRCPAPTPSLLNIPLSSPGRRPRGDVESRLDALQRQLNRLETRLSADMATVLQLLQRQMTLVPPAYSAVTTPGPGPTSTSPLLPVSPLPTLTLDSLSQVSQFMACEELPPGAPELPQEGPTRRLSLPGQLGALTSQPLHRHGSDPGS

Compound	hERG current change (%, negative = inhibition) at 10uM
Cc1c(C(=O)N/N=C/c2cccnc2)nnn1-c1nonc1N	12.3%
Cc1nc(N)nc(N/N=C/c2ccccc2)n1	12.3%
O=C(O)c1cc(C(=O)O)c(-c2ccccc2)c(C(=O)O)c1	-12.4%
NNC(=O)c1ccc(Cn2cc(Br)c(N)n2)cc1	18.2%
O=C(NCc1ccccn1)c1cccc(S(=O)(=O)Nc2ccccc2Cl)c1	-2.4%
Oc1cc2c(cc1CN1CCN(c3ccc(F)cc3)CC1)OCO2	-1.5%
CCOCCCNC(=S)N(CCN(C)C)Cc1cc2cc3c(cc2[nH]c1=O)OCCO3	22.7%
CCOC(=O)c1sc(NC(=O)CNCc2cccnc2)c(C(=O)OCC)c1C	-11.4%
CC1=NN(c2ccc(C(=O)O)c(N)c2)C(=O)C1	20.2%
CC(C)Nc1nc(NC(C)C)nc(N(C)n2cnnc2)n1	5.59%
Cc1onc(-c2ccc(Cl)cc2Cl)c1-c1csc(N/N=C/c2ccccc2Cl)n1	4.09%
CCC1(c2ccccc2)NC(=O)N(CC(=O)NCc2ccc(C)cc2)C1=O (centres unmarked)	4.8%
Cc1cccc(NC(=O)Cn2c(=O)n3nc(CCn4nc(C)cc4C)nc3c3ccccc32)c1	-23.9%
O=C(Cc1cccs1)N/N=C/C=C/c1ccccc1[N+](=O)[O-]	-0.125%
Cc1ccc(S(=O)(=O)N2CCOCC2)cc1NC(=O)COC(=O)C1=COCCO1	19.9%
CCc1csc(CCNC(=O)C2CCC(=O)N(CCc3cccc(F)c3)C2)n1 (centres unmarked)	-13.4%
Cc1ccc(NC2=CC(=O)CC(c3ccc(Cl)cc3)C2)cc1 (centres unmarked)	13.2%
COc1cccc(CNC(=O)Cn2c(=O)c3cccn3c3ccccc32)c1	19%
COc1ccc(/C=N/N2CCN(c3ccncc3S(=O)(=O)N3CCCCC3)CC2)cc1	10.3%
Cn1cc(SCC(=O)O)c2ccccc21	11.2%
CCCCN(CC)CCCNC(=O)c1ccc(CSc2nc3ccncc3[nH]2)cc1	2.92%
COCCNc1ncnc2c1nc1n2CCCC1	12.4%
CN(Cc1ccco1)C(=O)Cn1cc(S(=O)(=O)N2CCCC2)c(S(=O)(=O)N2CCCC2)c1	5.78%

Compound	hERG current change (%, negative = inhibition) at 10uM
O=c1c2c(nc3cc(-c4ccc(Cl)cc4)[nH]n13)CCS2	-13.9%
Cc1ccc(C)c(S(=O)(=O)NC(Cc2c[nH]c3ccccc23)C(=O)O)c1 (centres unmarked)	16.4%
COc1ccc(NC(=O)COc2ccc(/C=N/O)cc2OC)cc1	1.42%
CC(=O)NC(CC(=O)Nc1ccc(S(=O)(=O)NC2=NCCCCC2)cc1)c1ccccc1 (centres unmarked)	-5.71%
COc1ccc(NC(=O)CSc2nc3sc(C)c(C)c3c(=O)n2Cc2ccco2)cc1	-6.52%
CCCCN(CC)C(=O)/C=C/c1cccc([N+](=O)[O-])c1	-63.5%
CCOC(=O)c1ccccc1NC(=O)Cn1cnc2c(oc3ccccc32)c1=O	18.3%
O=C(NC(=S)Nc1ccccc1Cl)c1cncc(Br)c1	18.7%
Cc1nc(C(=O)NCCCO)cc2c1[nH]c1ccccc12	14.5%
CC(C)Cn1c(=O)c2c(nc3n2CCS3)n(C)c1=O	0.226%
O=c1cnnc(Nc2ccc(Nc3ccccc3)cc2)[nH]1	21.2%
O=C1COc2ccc(C(=O)COC(=O)Cc3ccc(Cl)cc3)cc2N1	-9.51%
O=C(NCc1ccccc1Cl)C1CCC(=O)N(C2CCCC2)C1 (centres unmarked)	6.64%
CC(C(=O)N1c2ccccc2CC1C)N1CCN(S(=O)(=O)c2ccccc2F)CC1 (centres unmarked)	-29.1%
CCOC(=O)c1ccc(N(CC(=O)NC2CCCC2)C(=O)CNC(=O)c2ccco2)cc1	-18.5%
COCCCNC(=O)CN1CCN(Cc2ccc(Cl)cc2)C1=O	1.74%
CCNC(=O)CP(=O)(c1ccccc1)c1ccccc1	15.1%
O=C(CCn1c(=O)c2ccccc2n(Cc2cccnc2)c1=O)NCc1ccc2c(c1)OCO2	-5.1%
COc1cc(NS(=O)(=O)c2ccc(Br)s2)cc(OC)c1	-6.99%
O=C(CCNC(=O)c1ccc([N+](=O)[O-])cc1)Nc1ccccc1N1CCOCC1	-64.3%
Cc1oc(-c2cccc(C(F)(F)F)c2)nc1CN1CCOCC1	-3.32%
COc1ccc(NC2=Nc3cccc4cccc2c34)cc1	-3.18%
ON1C2CCCCC2N(O)C1c1c(F)c(F)c(F)c(F)c1F (centres unmarked)	19.3%

Compound	hERG current change (%, negative = inhibition) at 10uM
CCn1c(Cc2ccccc2)nnc1SCC(=O)Nc1cc(C)on1	6.46%
O=C(CSc1nnc(NC(=O)C2CCCCC2)s1)NCc1ccco1	12.9%
Cc1ccccc1NC(=O)C1CCCN(C(=O)Nc2ccc(F)cc2)C1 (centres unmarked)	-9.04%
Cc1nn(C)cc1S(=O)(=O)N1CCN(c2ccccc2)CC1	-0.755%
O=C(Nn1c(-c2ccncc2)nc2ccccc2c1=O)c1ccc([N+](=O)[O-])cc1Cl	6.33%
CC1=C(C(=O)OCc2ccccc2)C(c2ccc(N3CCOCC3)cc2)NC(=O)N1 (centres unmarked)	-2.02%
Cc1cc(NC(=O)CCCSc2nc(-c3ccco3)cc(C(F)(F)F)n2)no1	16.7%
CN(C)C(=O)c1nnsc1Sc1ccc(Cl)cc1	-24%
Cc1ccc(C)c(OC(C)C(=O)Nc2nccs2)c1 (centres unmarked)	3.8%
O=C(Nn1c(COc2ccccc2)nc2ccccc2c1=O)C(Cl)(Cl)Cl	9.26%
N#CCSc1ccccc1NC(=O)COc1ccc(-c2nnco2)cc1	-66.3%
Cc1ccc(S(=O)(=O)NNc2nc3ccccc3nc2C(F)(F)F)cc1	3.38%
COc1cc(OC)cc(-c2c(C#Cc3ccsc3)c3cc(-c4ccc(C(N)=O)cc4)ccc3n2C)c1	22.3%
Cc1ccc(SCc2nc(N)nc(Nc3ccccc3C)n2)cc1C	1.31%
Cc1ccc(S(=O)(=O)c2nnn3c2nc(N2CCOCC2)c2ccccc23)cc1C	-27.4%
CCc1ccccc1N1CC23C=CC(O2)C(C(=O)O)C3C1=O (centres unmarked)	1.61%
COc1ccc2nc(N3CCCC3)[nH]c2c1.Cl	-15.7%
CCOC(=O)c1c(C)oc2c1c(C=NC1CCS(=O)(=O)C1)c(O)c1ccccc12 (centres unmarked)	-1.88%
COC(=O)c1ccc(CSc2nnc3c(Cl)cc(Cl)cn23)o1	10.9%
N#Cc1ccc(Oc2ccc(-c3nc4ccccc4nc3-c3ccccc3)cc2)cc1C#N	4.32%
CCC1(C(=O)OC)CCc2c(cc(OC)c3ccccc23)C1=O (centres unmarked)	3.07%
O=C(NCC1CC1)Nc1cccs1	10.5%
O=C(NC1CCCc2ccccc21)c1cncc(Br)c1 (centres unmarked)	8.69%

Compound	hERG current change (%, negative = inhibition) at 10uM
CCN1CCN(CCOc2ccccc2-c2ccccc2)CC1.O=C(O)C(=O)O	-32.9%
O=C(OCC(=O)N1CCCC1)c1ccc(Cl)c([N+](=O)[O-])c1	-14.4%
COc1ccc2c(c1OC)C(=O)OC2Nc1ccccc1S(=O)(=O)C(F)F (centres unmarked)	15.1%
CCc1cccc(OCCOCCN2CCCC2)c1.O=C(O)C(=O)O	-46.1%
O=C(Cc1ccc(Cl)c(Cl)c1)OCC(=O)c1ccc[nH]1	-24.9%
CN(Cc1nc2ccc(F)cc2[nH]1)Cc1c(C(=O)N(C)C)nc2ccc(Cl)cn12	-43.3%
Cc1ccc(/C=N/NC(=O)c2ccccc2OCc2cccc(Br)c2)o1	-24%
NS(=O)(=O)c1ccc2c(c1)C(=NO)c1cc(S(N)(=O)=O)ccc1-2	7.26%
COc1cc(NC(=S)NC(=O)c2ccco2)ccc1NC(=O)C(C)C	1.81%
Cc1ccc(C(=O)OCC(=O)NC2CCCC2)cc1C	7.5%
Cn1c(SCc2cccc(Cl)c2)nc(C(F)(F)F)cc1=O	20%
CC(OC(=O)CC1CC2CCC1C2)C(=O)Nc1cccc(S(=O)(=O)N2CCOCC2)c1 (centres unmarked)	-4.23%
CCC1CCCCN1CCCNC(=O)Cn1c(=O)c2cccn2c2ccccc21 (centres unmarked)	-4.16%
c1ccc(-n2c(-c3ccco3)nnc2N2CCOCC2)cc1	13.9%
COc1ccc(S(=O)(=O)N2CCCCC2)cc1NC(=O)c1cc([N+](=O)[O-])ccc1N1CCOCC1	-30.4%
CCOC(=O)c1c(C)[nH]c(C(=O)OCC(=O)NCc2ccc(F)cc2)c1C	7.17%
C/C(=N\NC(=O)c1cc(C)oc1C)c1ccc2c(c1)OCO2	-11.9%
C/C(CC(=O)Nc1cccc2c1CCCC2)=N\NC(=O)c1ccccc1N	-5.32%
CCCCNC(=O)COc1ccccc1C(=O)c1cc(C#N)c(=O)n(CCOC)c1	-22.4%
O=C(CC(c1ccccc1)(c1ccccc1)c1ccccc1)N[C@@H](Cc1ccccc1)C(=O)O	13.3%
